# PubChem BioAssay AID1030 (National Center for Advancing Translational Sciences (NCATS), 2008)
# Screen size: about 220,000 compounds; about 16,000 (7.3%) were called active. The shares of active, inactive and inconclusive entries below differ from those in the screen. Calls come from the whole dose curve; as a rule, active = well fitted inhibition curve with a large enough effect (not every such curve was filed as active); inconclusive = small, poorly fitted or top-dose-only effect, or another doubt; inactive = no such curve, though single readings can be large or run the other way. Potencies of inconclusive entries are left out as doubtful fits.
# Biological target: Aldehyde dehydrogenase 1A1 (Homo sapiens) (UniProt P00352)
# Assay: qHTS Assay for Inhibitors of Aldehyde Dehydrogenase 1 (ALDH1A1);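 for activity, negative = inhibition: plate controls were no enzyme wells and a reference inhibitor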
# Conditions: Purified ALDH1A1, NADH fluorescence, propionaldehyde substrate; series mostly up to 75.3 µM
# Potency is the fitted concentration of half-maximal effect; tags give direction and shape of the fitted curve.
# Sequence of UniProt P00352 (P00352 whole entry, looked up): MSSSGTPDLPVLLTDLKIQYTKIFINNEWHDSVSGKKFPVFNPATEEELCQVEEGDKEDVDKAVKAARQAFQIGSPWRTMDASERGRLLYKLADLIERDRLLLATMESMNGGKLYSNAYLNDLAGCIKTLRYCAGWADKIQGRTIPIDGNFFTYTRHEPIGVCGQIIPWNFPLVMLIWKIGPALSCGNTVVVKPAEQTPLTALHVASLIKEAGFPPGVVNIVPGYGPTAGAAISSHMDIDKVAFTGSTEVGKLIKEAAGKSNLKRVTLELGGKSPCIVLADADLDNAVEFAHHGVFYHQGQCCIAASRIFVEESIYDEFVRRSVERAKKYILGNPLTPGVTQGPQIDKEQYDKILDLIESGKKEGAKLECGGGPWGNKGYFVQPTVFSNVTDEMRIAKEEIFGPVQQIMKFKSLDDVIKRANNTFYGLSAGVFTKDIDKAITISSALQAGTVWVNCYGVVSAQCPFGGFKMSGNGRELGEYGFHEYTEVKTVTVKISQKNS
SMILES,Potency,"activity, negative = inhibition"
Cc1ccc(S(=O)(=O)N2CCCC2C(=O)OCc2ccccc2)cc1 (stereo unspecified),inactive,
Cc1ccc(Nc2nc(CSc3nnc(-c4ccncc4)n3C)cs2)cc1,"inconclusive [inhibitor, single point]",
S=c1nc(C2CCCCC2)[nH][nH]1,"inconclusive [inhibitor, single point]",
Clc1ccccc1CN1CCC(Cc2ccccc2)CC1,"inconclusive [inhibitor, partial curve, poor fit]",
COc1ccc(C2=CC3=C(Br)C(=O)C(C)(OC(=O)CCc4ccccc4)C(=O)C3=CO2)cc1 (stereo unspecified),inactive,
COC(=O)C(C(C)=O)C1c2ccccc2C=C(C)N1C(=O)OC (stereo unspecified),,inactive: 20% [at 13.5 µM]
Cn1c(=O)c2c(nc(CN3CCC(C(N)=O)CC3)n2CCCc2ccccc2)n(C)c1=O,active: 5.62 µM,
CC(C)(C)c1ccc(-c2ncccc2O)cc1,"inconclusive [inhibitor, single point]",
COc1ccccc1N1CCN(CC(O)COc2ccc(S(=O)(=O)N3CCOCC3)cc2)CC1 (stereo unspecified),inactive,
COc1ccc2c(c1)OC(O)(C(F)F)CC2=O (stereo unspecified),"inconclusive [inhibitor, full curve]",
Cc1cc(N2CCN(c3nc4ccccc4s3)CC2)n2ncnc2n1,"inconclusive [inhibitor, single point]",
Cc1ccc(/C=C2\SC(=S)N(C3CCS(=O)(=O)C3)C2=O)o1 (stereo unspecified),"inconclusive [inhibitor, single point]",
Cn1cccc1C(=O)N1CCC2(CC1)CN(Cc1cc(C(F)(F)F)cc(C(F)(F)F)c1)C2,inactive,
CC(=O)C(Cc1ccc(Cl)nc1)Cc1ccc(Cl)nc1,inactive,
CCOc1ccc(NC(=O)CS(=O)CC(=O)NC2CCCc3ccccc32)cc1 (stereo unspecified),active: 6.31 µM,
CCCn1c(=N)n(CC(=O)c2cccs2)c2ccccc21,"inconclusive [inhibitor, single point]",
N#C/C(=N\Nc1ccc(Br)cc1)C(=N)N1CCOCC1,"inconclusive [inhibitor, partial curve]",
O=C(c1ccc(S(=O)(=O)N2CCCCC2)cc1)N1CCN=C1SCc1cccnc1,"inconclusive [inhibitor, single point]",
CCOC(=O)C1(C)C(C(=O)OC)=C(c2ccc(OC)cc2)c2ccccc2N1C(=O)OC (stereo unspecified),"inconclusive [inhibitor, single point]",
CCCCNc1c(N)n(CC(C)C)c(=O)[nH]c1=O,"inconclusive [inhibitor, single point]",
Cc1cc(NCCN2CCOCC2)n2nc(C)c(-c3ccc(Cl)cc3)c2n1,"inconclusive [inhibitor, partial curve]",
O=S(=O)(Nc1nnc(-c2ccccc2)s1)c1ccc(Cl)cc1,inactive,
CCN1CCN(C(=O)c2cc3c(-c4ccc(Cl)cc4)nn(C)c3s2)CC1,"inconclusive [inhibitor, single point]",

SMILES,Potency,"activity, negative = inhibition"
Cc1ccc2c(c1)NC(=O)C(CC(=O)NCc1ccc(F)cc1)O2 (stereo unspecified),inactive,
CC(C)CC1(C)NC(=O)N(CC(=O)Nc2cccc(S(=O)(=O)N(C)c3ccccc3)c2)C1=O (stereo unspecified),inactive,
CS(=O)(=O)c1ccc(C(=O)Nc2ccccc2Cl)cc1,inactive,
CCOc1ccc(N2C(=O)CC(SCCN)C2=O)cc1 (stereo unspecified),active: 3.16 µM,
CCN(CC)P(=O)(Nc1ccc(C)cc1Br)c1ccc(N(C)C)cc1NC(=O)c1ccco1 (stereo unspecified),"inconclusive [inhibitor, single point]",
O=C(CSc1nc2c(sc3ccccc32)c(=O)n1CCCN1CCCC1)NCc1ccccc1,"inconclusive [inhibitor, single point]",
O=C(O)CN(c1ccc(F)cc1)S(=O)(=O)c1ccc2c(c1)OCCO2,inactive,
Cc1cccn2c(=O)c(/C=C(\C#N)C(=O)NCc3ccco3)c(N3CCC(C(N)=O)CC3)nc12,"inconclusive [inhibitor, partial curve]",
Cc1ccc(NC(=O)COC(=O)C(NS(=O)(=O)c2ccc(Cl)cc2)C(C)O)cc1C (stereo unspecified),active: 1.26 µM,
Cc1oc(-c2ccc(Cl)cc2)nc1CN1CCC(C(=O)N2CCc3ccccc3C2)CC1,"inconclusive [inhibitor, partial curve]",
Cc1ccc(-c2noc(CCC(=O)N3CCCc4ccccc43)n2)cc1,"inconclusive [inhibitor, single point]",
CC(=O)OC[C@@H]1O[C@H](C/C=N\O[C@@H](C)CN2CCCc3nc(C)c(C)cc32)C=C[C@@H]1OC(C)=O,"inconclusive [inhibitor, single point]",
CC(C(=O)Nc1ccccc1)N(C)CCOc1ccc(Br)cc1 (stereo unspecified),"inconclusive [inhibitor, single point]",
CC(=O)c1sc(N/N=C\c2ccc(C)cc2)nc1C,"inconclusive [inhibitor, single point]",
CCCCNS(=O)(=O)c1ccc2nc(-c3cccs3)cc(C(=O)NCC(OC)OC)c2c1,"inconclusive [inhibitor, partial curve]",
Cc1cccc(N=Nc2c(C)nn(-c3ccccc3)c2N)c1C,inactive,
CCOC(=O)NC(CC(=O)O)c1ccc(OC)cc1 (stereo unspecified),inactive,
N#C/C(=C\c1cn(-c2ccccc2)nc1-c1ccccc1)S(=O)(=O)c1ccccc1,"inconclusive [inhibitor, full curve]",
CN1CC(c2ccccc2)C(c2ccc(Cl)cc2)=N1 (stereo unspecified),"inconclusive [inhibitor, single point]",
Cc1oncc1-c1cn2ccccc2n1,"inconclusive [inhibitor, single point]",
Cc1ccc(NC(=O)CSc2nc3ccccc3c3nc4ccccc4n23)cc1,inactive,
O=C1c2ccccc2C(=O)N1CCSc1nnc(-c2ccco2)n1Cc1ccccc1,"inconclusive [inhibitor, single point]",
COc1ccc(C(=O)N2C(=O)c3ccc(N)cc3C2=O)cc1,"inconclusive [inhibitor, single point]",
